Whole data set: some 33,000 sequences, median “E-score (-0.5 to 0.5)” near -0.053, cut for the highest 2% near 0.37. Some of the results follow.
molecular target: Hap1 (UniProt P0CE41); test: PBM E-score (8-mer binding enrichment) (E-score (-0.5 to 0.5)); higher = stronger / more preferred TF binding; most listed sequences are background and not binding sites; details: protein concentration: 200 nM; construct: GST-DNA-binding domain
Summary of the method: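 Detection of bound protein used fluorescent anti-GST, with scans normalised by masliner. The proteins were GST-tagged yeast transcription factors applied at about 100-200 nM to universal all-10-mer Agilent arrays made double-stranded by primer extension. Each ungapped eight-base word, pooled with its reverse complement, was scored with an E-score from the Universal PBM Analysis Suite.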

Chain of UniProt P0CE41 (P0CE41 whole entry, the tested form may be a part): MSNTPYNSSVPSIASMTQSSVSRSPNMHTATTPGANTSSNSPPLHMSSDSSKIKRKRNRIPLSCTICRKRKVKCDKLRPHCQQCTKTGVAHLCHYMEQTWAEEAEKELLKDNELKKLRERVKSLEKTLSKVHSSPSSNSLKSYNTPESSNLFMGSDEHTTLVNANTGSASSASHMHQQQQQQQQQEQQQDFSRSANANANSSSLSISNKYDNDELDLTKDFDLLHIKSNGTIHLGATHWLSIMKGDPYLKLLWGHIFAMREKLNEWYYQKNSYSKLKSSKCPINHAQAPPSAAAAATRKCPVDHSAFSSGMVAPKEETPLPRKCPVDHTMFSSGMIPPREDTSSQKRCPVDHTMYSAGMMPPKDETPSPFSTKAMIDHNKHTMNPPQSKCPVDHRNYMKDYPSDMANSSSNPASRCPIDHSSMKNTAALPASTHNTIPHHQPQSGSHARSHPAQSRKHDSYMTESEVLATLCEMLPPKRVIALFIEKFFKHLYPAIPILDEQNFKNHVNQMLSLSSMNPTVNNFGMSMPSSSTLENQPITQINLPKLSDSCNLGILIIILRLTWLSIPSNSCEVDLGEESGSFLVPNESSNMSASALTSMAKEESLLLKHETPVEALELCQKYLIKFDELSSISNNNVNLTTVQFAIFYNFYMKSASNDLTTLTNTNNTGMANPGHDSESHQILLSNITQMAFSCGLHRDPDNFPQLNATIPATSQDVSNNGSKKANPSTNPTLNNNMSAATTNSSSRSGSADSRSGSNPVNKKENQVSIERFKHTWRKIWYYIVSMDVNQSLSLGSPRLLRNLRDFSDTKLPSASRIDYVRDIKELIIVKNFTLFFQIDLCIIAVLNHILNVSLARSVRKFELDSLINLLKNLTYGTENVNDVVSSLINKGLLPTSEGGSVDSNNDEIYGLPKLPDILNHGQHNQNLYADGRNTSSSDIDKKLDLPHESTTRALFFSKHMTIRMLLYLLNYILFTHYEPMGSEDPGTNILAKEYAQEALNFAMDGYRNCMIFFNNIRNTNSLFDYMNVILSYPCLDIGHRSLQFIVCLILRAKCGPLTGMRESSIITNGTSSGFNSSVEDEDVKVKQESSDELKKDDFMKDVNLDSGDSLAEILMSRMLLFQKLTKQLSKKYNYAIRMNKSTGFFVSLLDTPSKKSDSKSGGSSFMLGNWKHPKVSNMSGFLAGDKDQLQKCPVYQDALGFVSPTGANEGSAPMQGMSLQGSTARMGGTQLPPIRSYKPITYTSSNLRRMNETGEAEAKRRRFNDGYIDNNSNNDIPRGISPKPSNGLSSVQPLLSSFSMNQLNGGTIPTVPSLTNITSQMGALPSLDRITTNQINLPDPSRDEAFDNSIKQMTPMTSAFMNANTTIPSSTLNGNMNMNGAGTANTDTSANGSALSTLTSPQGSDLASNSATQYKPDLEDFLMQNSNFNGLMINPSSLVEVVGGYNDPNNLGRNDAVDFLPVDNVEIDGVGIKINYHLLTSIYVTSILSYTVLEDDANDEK

Sequence	PBM E-score
AGCCGTGC	-0.00546
ACTTAATA	-0.0171
ACGCCAAA	-0.08
CAAAGCTA	-0.0227
GGATTGAC	0.0252
GTCGTACA	-0.068
ATGCGGAA	0.24
CCACACGG	0.0602
AACACTAC	-0.188
CGGCACAG	0.187
GAGATTTA	0.0904
AGAATCGC	0.141
CACTATGC	-0.0998
GACGATAA	0.0929
CCGACTAG	0.139
AAATTTAT	0.0775
CTTAATGA	-0.14
AGCGGCAT	0.205
GTCCAGGA	-0.33
GCATTTCC	0.0931
TTCACCAA	-0.139
AGTATCAC	-0.0541
GATCTTCC	0.132
AATCACGG	0.205
AGAAGCCA	-0.0747

Sequence	PBM E-score
ATGAGGAG	-0.155
CCCGTCAC	0.21
ATCGATGC	0.0699
CAGGTACC	-0.145
AGTCTGCG	-0.376
GAAGCGTC	-0.117
GAACGGGC	-0.0275
CCTCCTCG	-0.147
CACATGGG	-0.229
AGCATCCC	-0.0528
AGACCGAT	0.35
AGTGGGTA	0.123
GTTGGGGA	-0.00945
CACGCAGA	-0.16
AAAAACGA	-0.157
TATGGGAA	-0.185
ACTACAAC	0.00676
TCTCCGCA	0.299
CCTCCCGC	0.0238
ACAGGACC	-0.0163
GGTATCAA	0.106
AGCACGAG	-0.0955
CGAGAACG	0.178
AGGGATCC	0.146
ATGTCGCG	0.0235

Sequence	PBM E-score
GCGAGACC	-0.0495
ACTTGTTC	-0.117
GCTGACCA	-0.00634
GAAGAACC	0.0508
AATGAATT	-0.0893
GCGTGAGA	0.0273
ATTTTTGC	0.0316
AACCTTTC	0.0406
ATTGTCGG	0.321
CGGAAAAG	0.343
AACCAGCA	-0.143
CTAGAGCC	-0.103
CCACAACC	-0.072
AAGAGAGT	-0.114
CCTTAATA	-0.0697
GATGCATA	-0.0665
CCCCCCCA	-0.0859
ACTGGTGA	-0.245
CACTCTCC	0.0718
CAAGATAG	-0.125
GGTACAGA	-0.147
CATCCTGC	-0.284
GCGATTAC	0.0898
GACCGCGA	0.19
CCACTCAC	-0.079

Sequence	PBM E-score
CATGCGGC	-0.15
ATAGCAAA	-0.248
GTATGAGA	-0.0236
GCAAGCCC	0.0811
AAGCGCGG	0.0839
ATGAGGAA	-0.0925
CCAAGCGA	-0.203
CCCGACAC	0.177
CAAGTTGG	-0.0661
ATCCCATA	0.0312
AGTCACAA	-0.27
ATACTGCG	-0.0218
CATGGTCC	-0.0533
AGTGCATA	-0.132
ATCTCCCC	0.0474
ACAAATTA	-0.0249
ATGGGTCA	-0.27
TGACACAA	-0.188
AATGTGTC	-0.0789
CCATCCCA	-0.117
CGTTCTCA	-0.226
CCCTTAGA	-0.259
CAACCATC	0.00672
GGTTCGAC	-0.0219
ACTACGCA	-0.0826

Sequence	PBM E-score
CAGAGAGC	-0.17
AACGGGCC	0.127
AGAATTAC	0.0991
GCTAGAAA	0.00369
GAATGTCA	-0.149
CTCACACA	-0.0699
CCAGACCA	-0.187
CAACTGGA	-0.109
GATGCGCC	0.04
AAGAATTG	0.06
TGAGCCAA	-0.233
GACACACC	0.0233
CTATGCAC	-0.253
ATGGGAGC	-0.0627
TAGCCATA	-0.25
ACGCTAGC	-0.212
AATAGAGA	-0.18
GCATAGAA	-0.00949
CATCCCCA	-0.184
CAAGCGAG	0.0412
ACGAACGG	0.236
GTGGAGTA	-0.107
ACGTCTCG	0.0586
CATTAATA	0.00311
AACCGTGG	0.0649

Sequence	PBM E-score
ACCCAGTA	-0.253
CCGCGCGC	0.24
CTGCTGCC	-0.142
GGTAGACA	0.0417
ATCTCTTA	0.015
AGAGTCCC	-0.0345
ATGTGCAC	-0.108
AAGCAGCT	-0.114
AAAGAGTC	-0.116
AAGTGTCT	-0.0964
ATTTACAG	-0.156
ACAGATTC	0.0309
GCACCGCA	0.00539
TGTCGACA	-0.321
AGGTGAAG	-0.184
GTACATAA	0.0421
GCCGCCCC	0.175
ACCGCCAC	-0.151
ATCGGCAA	0.345
ACTGCAGC	-0.0459
AAGGAATT	-0.00572
CATCAGCC	-0.173
GATCAAGA	0.0997
CACCGAGG	0.29
AATGAAAC	-0.12

Sequence	PBM E-score
AACGCGGG	0.267
AAACTCGG	0.323
ACCTCCTG	-0.266
ACCCTGGG	-0.0738
AGACGCCA	-0.236
GCGATCCA	-0.0248
TACCTTCA	-0.199
AGATATTA	0.0205
CCAGCCAG	-0.142
CATGATCA	-0.182
CCAGAGGC	-0.259
CTGCATTA	-0.0536
TAAGAGTA	-0.124
GGACTGGA	-0.0873
AGGCTATA	-0.157
ACCTGGGG	-0.232
CCGCTTAA	0.0901
CGACGCCC	0.277
GGTTTATA	0.174
GATCGTCA	-0.0826
AAGAGCAG	-0.144
ACTCGGAT	0.311
AAGCTATG	-0.221
TCGCTCCA	-0.0528
GCACAACA	-0.169

Sequence	PBM E-score
ACCACTGC	-0.234
CCCCGCGG	0.219
AGGACGCA	-0.0629
GGTCGCTA	0.0101
ACAGCGTG	-0.137
ACTTGGTG	-0.25
CCGGTGTC	0.301
AGAGAACT	-0.168
CAAGTCGA	-0.217
AGCCCGAA	0.3
CGCACGAA	0.0082
GACTTCAA	-0.192
AGCTCCAG	-0.125
CCGCGATA	0.297
CATTTTAA	-0.0637
GCACGAGA	-0.0065
GCCGGTTA	0.218
CAATTAGA	-0.298
CACGTGAC	-0.211
CCATCGGC	0.174
CTCTTCAC	-0.157
AATAATCA	-0.023
CATCATGG	-0.13
GCTTTTGA	0.00454
ATCTACGA	-0.201

Sequence	PBM E-score
AAGTTATG	-0.163
ACTGGGAA	-0.103
GAAGTATC	0.0616
ACGTGAGT	-0.227
CAACCAGG	-0.164
ACCTATAT	0.114
AGAGCACA	-0.203
TACGACCA	-0.255
CCGGTAGA	0.359
AATCGCTC	0.0316
CGCAAGAC	-0.117
GCGGGATA	0.2
AGGAGACG	-0.218
CCACACAG	-0.173
GCCATATA	0.00515
ATACATAA	-0.108
CCAATTCA	-0.247
CTTAAGTA	-0.121
GGTAAATA	0.0374
ACGGAGGG	0.155
CCTGTACA	-0.103
AGTTACCA	0.0113
AGCATGGC	-0.139
CATGTGCA	-0.253
GCTAGACC	0.0346

Sequence	PBM E-score
GTTACGTA	-0.161
CATAGAAA	-0.0951
ATGCAGGA	-0.305
AGCGATCC	0.0456
GCTCTGGA	-0.0319
AGCTCCCT	-0.25
AACGATGT	-0.124
CAGGCATG	-0.115
CAGCGACG	-0.158
CCAAAGAC	-0.0155
ATCGCCAG	-0.0506
ATAACCAG	-0.0985
AAGCGTAG	-0.057
AATGAGAT	-0.104
TCCTCCGA	0.308
ATATCAGA	0.126
GTAGATAA	0.102
CGTGTTTC	0.0655
TCGCCGAA	0.341
TAAGTCCA	0.138
ACACAAGT	-0.25
ATTCTCTA	-0.192
CCAGATGC	-0.0813
GACGCCCC	0.132
ACCGATAG	0.373

Sequence	PBM E-score
TACAAAGA	-0.0127
CCGGACCG	0.431
AGCAATCC	0.122
GCTTGAAC	0.105
CATCAGAG	-0.119
CCGGCGGA	0.421
CTCGGGAC	0.263
ACTGGGCG	0.031
ACGGTGCA	-0.19
TACTGTGA	-0.17
ACGTTGTA	-0.146
GGGACACC	0.0924
CAAGTGCC	-0.145
TCAAGGCA	-0.298
GCAATGGC	0.0739
AGCCAGAA	-0.187
CCTCGGAG	0.394
AGACAGTC	-0.149
AACTGAAG	-0.186
CAATATTC	0.0318
CCAGGAAC	-0.139
ATGCGGGG	0.0501
CTCATTTA	-0.0627
AGGTCCAA	-0.133
CAGGATAA	-0.144

Sequence	PBM E-score
AACGGATT	0.338
CTCAGCCA	-0.105
TAATAAAA	0.0262
GCCAAAAC	-0.0706
CACACCCG	0.16
CAGGGCCA	-0.233
CTGATTTC	-0.0451
AACGCTAT	-0.0481
ACGATCCT	-0.267
ACTGTCCC	-0.034
AAGAGGGC	-0.271
TAGTCGCA	0.045
CGAATGCG	0.224
GGGCTGCA	-0.0068
GGCTGTAC	0.0566
ATCGACCC	0.165
AAGGATGG	-0.188
GGTAATGA	0.0402
CAAATTAG	0.0251
AAATGTTA	-0.215
CGTCCGCC	0.281
GATGCGGA	0.169
CCTGGAAC	-0.227
GGGTGCAC	0.0546
CCAGATCA	-0.00695

Sequence	PBM E-score
GTCTCTCA	-0.152
ATAATACC	0.15
AGGTCAAC	-0.0982
CCTGGCCA	-0.224
ATCGTCGA	-0.161
GCTAGAAC	-0.185
CTAGACTA	-0.191
CTTAAACA	0.0328
CTAGGGGC	-0.123
GCCAGTAC	-0.0313
GACTGGAC	0.0527
ATCGAGGG	-0.161
ACTACTGG	-0.14
CTGTCAGC	-0.0655
CGCAACCC	-0.0198
CGAATGCC	0.18
CCTCATCG	0.101
CTTTAGTC	-0.142
ATGCCGCG	0.221
GAGGTAGA	0.0169
AACCCTTG	-0.122
ATCAGGCG	-0.011
ATAACCGC	0.157
AATGCACA	-0.149
AGCTAATA	-0.15

Sequence	PBM E-score
CATCGGAA	0.297
CATAAACA	-0.125
ACAGGTCT	-0.215
GTGGAAAC	-0.00378
GAGTACAC	-0.0859
CTAGGTTA	0.0585
CGTTTAGC	0.115
AAATTGAG	-0.0939
ATTAGCGG	0.253
CGCTTTCC	-0.0127
CAGCCAAA	-0.049
AAGTGGTG	-0.199
CCGAGTCG	0.316
TAACGGCA	0.234
AACCTGCG	0.0937
ACTCTTAA	-0.173
ACTCATGC	-0.146
ACACTCAC	0.0776
GACTGGCC	0.163

Reference: the supplement of paper PMC3334620
